This note sets out measurements from the supplement of paper PMC10126150.

The subject of the data set is ATP. The experiment in a line: switch fluorescence ratio, 500 uM ATP over buffer (Cy3 cluster intensity, sum of 5 cycles each) (fold (ratio)); higher = stronger signal-on switching upon ATP binding; sequences stand for … in TCGTCGGCAGCGTCAGATGTGTATAAGAGACAGTTTTTTTTTTTTTTTTTTTTTTTTT…TC. The conditions noted are these: aptamer strand: ATP DNA aptamer (quencher-CACCTGGGGGAGTATTGCGGAGGAAGG + anchor), 100 nM annealed; ATP concentration: 500 uM; one replicate. The method in brief: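 Clusters carrying Cy3-labelled switching strands on a modified Illumina MiSeq flow-cell were annealed to 100 nM quencher-labelled ATP aptamer and imaged in selection buffer. They were imaged again after 15 min with 500 uM ATP at 22 °C, over five buffer/ATP cycles with NaOH stripping and re-annealing in between. For each cluster, the fluorescence ratio is the summed Cy3 intensity of the target cycles divided by that of the buffer cycles, averaged per switch-domain sequence. Clusters outside 100-1000 RFU were left out.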

Sequences with one replicate were seen in a single cluster, so their values are uncertain.
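Note: ATP exposure 15 min at 22 °C before imaging.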

In the case of TGTCCGGGAA, the switch fluorescence ratio is 1.06.

As to TTGATGATA, the switch fluorescence ratio is 0.938.

On to TCACAGAGGT, for which the switch fluorescence ratio is 1.03.

For GTCGTCAGTG, the switch fluorescence ratio is 0.974.

On to TCGTATTCCT, for which the switch fluorescence ratio worked out at 1.02.

CGACGATCTT: the switch fluorescence ratio is 1.01.

For the sequence TGTCACAGTC, the switch fluorescence ratio amounted to 0.975.

Take TGTTGACACA: the switch fluorescence ratio amounted to 1.02.

Consider GTTAGTATGG, for which the switch fluorescence ratio turned out to be 0.968.

With CATAAGTTC, the switch fluorescence ratio was 1.07.

Turning to AGCATGGGA, the switch fluorescence ratio is 1.02.

As for ATTCGCCTAC, the switch fluorescence ratio came to 2.02.

In the case of AGTTATAATG, the switch fluorescence ratio is 0.982.

For the sequence ATTGGGAAAT, the switch fluorescence ratio was determined as 1.03.

For AGGGCTTATA, the switch fluorescence ratio stood at 0.97.

Turning to TGATTCTAGG, the switch fluorescence ratio amounted to 1.01.

For the sequence TTCTGAGTTG, the switch fluorescence ratio is 0.959.

As for ATATTATT, the switch fluorescence ratio turned out to be 0.976.

With ATGTGATTGA, the switch fluorescence ratio was found to be 0.984.

In the case of TATCGACTAT, the switch fluorescence ratio was 0.98.

On to TTCGCTGGAA, for which the switch fluorescence ratio is 5.37.

For TGAGTGCCTC, the switch fluorescence ratio was found to be 0.974.

For the sequence GAGGACGTCA, the switch fluorescence ratio came out at 0.956.

Regarding GTGCATGCAC, the switch fluorescence ratio came out at 1.02.

For ACGGCCCTAG, the switch fluorescence ratio was found to be 1.05.

On to AGGGGCGCAT, for which the switch fluorescence ratio worked out at 1.02.

ATATTCAGGC: the switch fluorescence ratio amounted to 0.97.

Take ATTCGTACGC: the switch fluorescence ratio is 1.25.

As to GGTAGCA, the switch fluorescence ratio amounted to 0.976.

In the case of TTTTTCACAA, the switch fluorescence ratio is 1.03.

In the case of TAATAGGGTC, the switch fluorescence ratio stood at 0.978.

On to AAGCGTACTC, for which the switch fluorescence ratio was 1.86.

As to TTCTAACAAG, the switch fluorescence ratio came to 0.992.

As for AGAGCAGAGG, the switch fluorescence ratio was 1.

With GTAATTCTGC, the switch fluorescence ratio was found to be 0.999.

Regarding TTCAAGGG, the switch fluorescence ratio was determined as 0.968.

As for AGTCGATAGT, the switch fluorescence ratio worked out at 1.05.

Regarding CACCTACGAA, the switch fluorescence ratio came to 1.34.

With TCGGACAAGC, the switch fluorescence ratio amounted to 1.11.

For TAGCGGTGTA, the switch fluorescence ratio is 0.959.

As to AGATACATCG, the switch fluorescence ratio was determined as 1.05.

Consider GCGTTACCGG, for which the switch fluorescence ratio amounted to 0.994.

In the case of CGGAAAGTG, the switch fluorescence ratio is 0.99.

Turning to TGCACAAGGC, the switch fluorescence ratio is 1.1.

As for TAAGCCACTG, the switch fluorescence ratio was determined as 1.04.

For CGTTGGGTAA, the switch fluorescence ratio was 0.965.

As to CTACCAATAA, the switch fluorescence ratio worked out at 5.07.

For AGGCGTTTCC, the switch fluorescence ratio was 0.984.

On to CTGGCCTACA, for which the switch fluorescence ratio amounted to 1.07.

In the case of CGCCGAGTGG, the switch fluorescence ratio came to 1.06.

In the case of ATAGTATTAC, the switch fluorescence ratio was found to be 1.08.

With CAATATGCT, the switch fluorescence ratio worked out at 1.01.

Turning to TTAAGGAACA, the switch fluorescence ratio was 1.03.

In the case of TTACTAAGAA, the switch fluorescence ratio came out at 1.04.

For GTTTTTCACC, the switch fluorescence ratio was 0.963.

For TTTAGTCCTG, the switch fluorescence ratio is 0.987.

On to CGTAATCTTT, for which the switch fluorescence ratio was determined as 1.04.

For CACCTTCTCT, the switch fluorescence ratio came to 1.15.

In the case of GCTTTCGACT, the switch fluorescence ratio stood at 1.08.

For the sequence TGTAGGTCGG, the switch fluorescence ratio came to 0.996.

Regarding AACAATAATA, the switch fluorescence ratio came out at 0.989.

TGATGATCG: the switch fluorescence ratio is 0.967.

With GATTCCCAGG, the switch fluorescence ratio came to 4.28.

In the case of AGTATTATGG, the switch fluorescence ratio came out at 0.956.

On to TCGCAGGTGG, for which the switch fluorescence ratio was 0.964.

Take TCATGACGAT: the switch fluorescence ratio amounted to 1.02.

Consider TAAATAGAAA, for which the switch fluorescence ratio was 0.982.
